Measurements as given in PubChem BioAssay AID485364 (National Center for Advancing Translational Sciences (NCATS), 2010).
About 11,000 (3.1%) of roughly 360,000 compounds were called active. Inconclusive results, whose numbers are uncertain, are shown with a selection of clear calls. Calls come from the whole dose curve; as a rule, active = well fitted inhibition curve with a large enough effect; inconclusive = small, poorly fitted or top-dose-only effect; inactive = no such curve, though single readings can be large or run the other way. Potencies of inconclusive entries are left out as doubtful fits.

Molecular target: Schistosoma mansoni thioredoxin glutathione reductase (TGR) (UniProt Q962Y6)
Assay: qHTS Assay for the Inhibitors of Schistosoma Mansoni Peroxiredoxins; note: nearly all actives have a fitted effect of over 60% in size
Settings: purified TGR, DTNB reduction, TNB absorbance 405 nm; activity change, negative = inhibition: at 114 µM (top of the series) unless noted
Procedure, shortened: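 Kinetic colorimetric format: TGR-catalysed, NADPH-driven DTNB reduction monitored via TNB absorbance. Enzyme dispensed at 20 nM; compound exposure 15 min at room temperature before reaction start.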
% is set by controls: 0 for no effect and ±100 for the full control effect; potency is the fitted concentration of half-maximal effect; tags give direction and shape of the fitted curve.

Row | SMILES | activity change, negative = inhibition | Potency
1 | CCN(CC)C(=O)COC(=O)C1=NN(c2cc(C)ccc2C)C(=O)CC1 | inactive: -1.21% | –
2 | COc1ccccc1-c1nnc(Sc2nc([N+](=O)[O-])nn2C)o1 | – | inconclusive [inhibitor, partial curve]
3 | O=C(N/N=C/c1ccc(-c2ccccc2[N+](=O)[O-])o1)c1cccnc1 | – | inconclusive [inhibitor, partial curve]
4 | COc1ccc(/C=N/NC(=O)c2nn(-c3ccc(Cl)cc3)c(=O)c3c(N)scc23)cc1 | inactive: -24.2% | –
5 | Cc1ccc(-c2nc3cccc(C)n3c2Nc2ccc3c(c2)OCO3)o1 | – | inconclusive [inhibitor, partial curve]
6 | O=C(Cn1cnc2c(nnn2Cc2ccc(Cl)cc2)c1=O)NCc1ccco1 | – | inconclusive [inhibitor, partial curve]
7 | O=C(N1CCN(Cc2ccc3c(c2)OCO3)CC1)C(Cl)(Cl)Cl | – | inconclusive [inhibitor, single point]
8 | Cc1cc(OC(C)C(=O)NCC2CCCO2)cc(C)c1Cl (stereo not drawn) | inactive: 1.14% | –
9 | COc1ccc(NC2CCCN(C(=O)c3ccc(CSC)o3)C2)cc1OC (stereo not drawn) | – | inconclusive [inhibitor, partial curve]
10 | Cc1ccccc1NC(=O)CSc1nc(-c2cccs2)nc2cc(=O)[nH]n12 | inactive: 1.33% | –
11 | CN(C)C(=O)CN1C(=O)C2CC=C(Cl)CC2C1=O (stereo not drawn) | – | inconclusive [inhibitor, single point]
12 | CN(CCc1cn[nH]c1)C(=O)CC1C(=O)NCCN1Cc1cccc(Oc2ccccc2)c1 (stereo not drawn) | – | inconclusive [inhibitor, partial curve]
13 | CC1CCCCN1C(=S)Nc1ccc2nc3n(c(=O)c2c1)CCCCC3 (stereo not drawn) | – | inconclusive [inhibitor, partial curve]
14 | Cc1ccc(NC(=O)/C(C#N)=C(\N)C(Cl)(Cl)Cl)nc1 | – | inconclusive [inhibitor, partial curve, poor fit]
15 | COc1ccc(-c2cc(OC(=O)c3cccc(Cl)c3)c3c(C)oc(C)c3c(=O)c2)cc1OC | – | inconclusive [inhibitor, partial curve]
16 | Cc1c2cnn(-c3ccccc3)c(=O)c2c(C)n1CCCC(=O)Nc1cccc(F)c1 | – | inconclusive [inhibitor, partial curve]
17 | COc1cccc(CCNC(=O)CC2C(=O)NCCN2Cc2ccc(C)o2)c1 (stereo not drawn) | – | active: 50.1 µM
18 | O=C(Nc1ccc2ccccc2n1)c1ccccc1Br | inactive: -2.4% | –
19 | O=C(Nc1ccc(Cl)cc1)ON=C1CCCC1 | inactive: 9.38% | –
20 | COc1ccccc1-c1cc(C(F)(F)F)nc(S(=O)(=O)CCCC(=O)NCc2ccc(F)cc2)n1 | – | inconclusive [inhibitor, partial curve]
21 | COC(=O)c1c(-c2ccccc2)c[nH]c1C | – | inconclusive [inhibitor, partial curve]
22 | Cc1nn(C(C)C(=O)NC2C(=O)N3C(C(=O)O)=C(CSc4nnnn4C)CSC23)cc1Cl (stereo not drawn) | – | active: 2.24 µM
23 | O=C(O)CCn1c(-c2ccccc2)cc2c1CCCC2=O | – | inconclusive [inhibitor, partial curve]
24 | Cc1cc(C)nc(SC2CC(=O)N(c3ccc(Br)cc3)C2=O)n1 (stereo not drawn) | – | active: 50.1 µM
25 | Cc1ccc(NCCC(=O)c2cccc([N+](=O)[O-])c2)c(C)c1 | – | active: 0.501 µM

Row | SMILES | activity change, negative = inhibition | Potency
26 | O=C(CC(c1ccccc1)C1CCCCC1=O)c1ccco1 (stereo not drawn) | – | inconclusive [inhibitor, partial curve, poor fit]
27 | O=c1[nH]nc(CNc2ccc(C(F)(F)F)cc2)c2ccccc12 | inactive: -1.6% | –
28 | O=C(NCCc1ccccc1)C1CCC(=O)N(Cc2cccc(C(F)(F)F)c2)C1 (stereo not drawn) | – | active: 89.1 µM
29 | CCOc1ccc2nc(NC3=NC(c4ccc(OC)cc4)CC(=O)N3)nc(C)c2c1 (stereo not drawn) | – | inconclusive [inhibitor, partial curve]
30 | COc1cc(CCCN2C(N)=NC[C@@H]2c2ccccc2)cc(OC)c1OC | inactive: 14.1% | –
31 | COc1ccc(-n2ncc3c2ncn2nc(-c4ccc(OC)c(OC)c4)nc32)cc1 | inactive: 10.7% | –
32 | CCN(CC)C(=O)CSc1nc2c(sc(=S)n2Cc2ccco2)c(=O)n1-c1ccccc1 | – | inconclusive [inhibitor, full curve, poor fit]
33 | O=C(N/C(=C/c1ccco1)C(=O)N1CCc2ccccc21)c1ccco1 | – | active: 31.6 µM
34 | CCOc1cccc2sc(N3CCN(C(=O)c4ccco4)CC3)nc12 | – | inconclusive [inhibitor, single point]
35 | CC(=O)OCCN(C)c1cc(SC(C)C)c2nonc2c1[N+](=O)[O-] | – | active: 0.708 µM
36 | CCC(Sc1nc2ccsc2c(=O)n1-c1ccc(Cl)c(C)c1)C(=O)NCc1ccco1 (stereo not drawn) | – | inconclusive [inhibitor, full curve, poor fit]
37 | CC(=O)N(C)c1ccc(N=Cc2c(O)ccc3ccccc23)cc1 | – | inconclusive [inhibitor, partial curve]
38 | COc1cccc(CC2(CO)CCCN(Cc3ccc4c(c3)OCCO4)C2)c1 (stereo not drawn) | inactive: 4.51% | –
39 | Cc1ccc(/C=C/C(=O)N2CC(=O)Nc3ccccc32)o1 | – | active: 8.91 µM
40 | CCCC(C)c1nnc(NC(=O)CCS(=O)(=O)c2ccccc2)s1 (stereo not drawn) | – | active: 89.1 µM
41 | Cc1ccc(S(=O)(=O)CCC(=O)Nc2ccc(S(=O)(=O)N(C)C)cc2)cc1 | – | inconclusive [inhibitor, partial curve]
42 | COc1cc(C2Nc3cc(Cl)c(S(N)(=O)=O)cc3S(=O)(=O)N2)ccc1OCc1ccccc1 (stereo not drawn) | inactive: -2.97% | –
43 | COc1cc2cc(CN(C(=O)Nc3ccccc3)C3CCCC3)c(=O)[nH]c2cc1OC | – | inconclusive [inhibitor, single point]
44 | Cc1ccc(S(=O)(=O)CC(C)(O)CS(=O)(=O)c2ccc(C)cc2)cc1 | – | inconclusive [inhibitor, partial curve]
45 | O=C1CC(N2CCN(Cc3ccccc3)CC2)C(=O)N1c1ccc2c(c1)OCCO2 (stereo not drawn) | – | active: 56.2 µM
46 | CC(C)C[C@@H]1NC(=O)[C@H](Cc2ccc(O)cc2)NC(=O)[C@H](CCC(N)=O)NC(=O)c2cc([N+](=O)[O-])cc(I)c2NCC[C@@H](C(N)=O)NC1=O | – | inconclusive [inhibitor, partial curve]
47 | CC(C)(C)C1CCC(OC(=O)c2ccncc2)CC1 (stereo not drawn) | inactive: 0.714% | –
48 | CC(=O)N1CCN(c2ccc(NC(=S)NC(=O)c3ccc(C)c([N+](=O)[O-])c3)cc2)CC1 | – | active: 11.2 µM
49 | COc1cc2cc(CCCOC(=O)CCC(=O)O)oc(=O)c2cc1OC | – | inconclusive [inhibitor, partial curve]
50 | CCOC(=O)c1ccccc1NC(=O)/C=C/C(=O)O | – | inconclusive [inhibitor, partial curve]

Row | SMILES | activity change, negative = inhibition | Potency
51 | Cc1ccc(C)c(N(CC(=O)NCc2ccco2)C(=O)CCC(=O)Nc2ccccn2)c1 | – | inconclusive [inhibitor, partial curve]
52 | N#CC(C#N)=Cc1ccc(-c2ccc(S(=O)(=O)N=C(N)N)cc2)o1 | – | inconclusive [inhibitor, partial curve]
53 | CCCc1cc(=O)n2[nH]c(-c3ccc(Br)cc3)cc2n1 | inactive: -15.1% | –
54 | COc1ccc2c(CNCCc3ccco3)c(C(=O)O)n(Cc3ccc(F)cc3)c2c1 | – | inconclusive [inhibitor, partial curve]
55 | CN1C(=O)C2(c3ccccc31)C1CCCC=C1C(C#N)=C(N)C2(C#N)C#N (stereo not drawn) | – | active: 20 µM
56 | C/C=C(\NC(C)=O)c1ccccc1 | – | inconclusive [inhibitor, single point]
57 | Cc1ccc(C)c(S(=O)(=O)c2cn(Cc3ccccc3)c3cc(N4CCCC4)c(F)cc3c2=O)c1 | – | inconclusive [inhibitor, single point]
58 | Cc1ccc2c(CC(=O)Nc3c(C(=O)c4ccc(F)cc4)oc4ccccc34)coc2c1C | inactive: -3.6% | –
59 | NC(=O)CN1C(=O)/C(=c2\sc3nc(=O)c(Cc4ccccc4)nn3c2=O)c2ccccc21 | – | active: 0.355 µM
60 | c1ccc(Oc2c3ccccc3nc3ccccc23)cc1 | – | active: 5.01 µM
61 | CCN1C(=NCCc2c[nH]c3ccccc23)N[C@@H](c2ccccc2)C(C(=O)OC)=C1C | – | inactive
62 | O=C(C1=C[C@@H](C2CC2)C[C@@H](OCc2ccc(CO)cc2)O1)N1CCN(Cc2ccccc2)CC1 | inactive: 4.02% | –
63 | O=C(Nc1ccon1)Nc1cccc(Cl)c1Cl | inactive: -15.9% | –
64 | COc1ccc(N(C(=O)CCl)C(C(=O)NCCc2ccccc2)c2cccs2)cc1 (stereo not drawn) | – | active: 10 µM
65 | CCCN(CCC)Cc1c(C(=O)N/N=C/c2ccncc2)nnn1-c1nonc1N | inactive: 9.86% | –
66 | CCc1ccc(NC(=O)CSc2nnc(-c3cnccn3)n2Cc2ccco2)cc1 | – | active: 39.8 µM
67 | CC(C)NC(=O)c1c(CSc2ccc(Cl)cc2)noc1C(=O)NCc1ccccc1 | – | inconclusive [inhibitor, partial curve]
68 | O=C(O)c1ccc(N2C(=O)/C(=C/c3ccc(-c4ccc([N+](=O)[O-])cc4)o3)C=C2c2ccccc2)cc1 | – | active: 44.7 µM
69 | O=C(CCl)N1c2ccccc2SCC1c1ccccc1 (stereo not drawn) | – | active: 2.82 µM
70 | CCC1(C)Cc2nc3[nH]c(=S)n(-c4ccc(C)cc4)c(=O)c3cc2CO1 (stereo not drawn) | – | active: 6.31 µM
71 | CN1CCc2c(sc3c2C(=O)NC(/C=C\c2ccccc2)N3)C1 (stereo not drawn) | – | active: 10 µM
72 | O=c1oc(-c2cccc(Cl)c2)nc2c1cnn2-c1ccccc1 | inactive: 0.858% | –
73 | CCOC(=O)c1[nH]c(C)c(/C(O)=C2\C(=O)C(=O)N(CCCN3CCOCC3)C2c2cccnc2)c1C (stereo not drawn) | – | inconclusive [inhibitor, full curve, poor fit]
